Data from the supplement of paper PMC5998384.

Tests used:
HeLa Kyoto [1] = assay: thermal stability score vs G1/S (z-score of summed log2 fold changes over temperatures); higher = more thermally stable than in G1/S
HeLa Kyoto [2] = assay: solubility change mitosis vs G1/S (difference of NP-40 vs SDS log2 ratios) (log2 ratio difference); higher = more soluble in mitosis
HeLa Kyoto [3] = assay: melting temperature (median over replicates), in situ; higher = more thermally stable
HeLa Kyoto [4] = assay: solubility in G1/S (NP-40 vs SDS abundance) (log2 ratio); higher = more soluble; conditions: cell cycle stage: G1/S
[5] = cell cycle stage: early G1 (4.5 h after nocodazole release)
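Wherever melting temperature (median over replicates), in situ is given: HeLa Kyoto cells synchronized by double thymidine or nocodazole block, proteins quantified by TMT10plex mass spectrometry, three independent biological replicates.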
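Wherever solubility change mitosis vs G1/S (difference of NP-40 vs SDS log2 ratios) is given: synchronized HeLa Kyoto cells (double thymidine block for G1/S, nocodazole release for mitosis), protein amounts in NP-40 versus SDS lysates quantified by mass spectrometry, three biological replicates.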
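Wherever solubility in G1/S (NP-40 vs SDS abundance) is given: HeLa Kyoto cells arrested at G1/S by double thymidine block, proteins quantified by TMT10plex mass spectrometry in mild NP-40 versus SDS extracts, three biological replicates.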
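Wherever thermal stability score vs G1/S (z-score of summed log2 fold changes over temperatures) is given: synchronized HeLa Kyoto cells, proteins quantified by TMT10plex mass spectrometry, three biological replicates, mitosis taken 0.5 h after nocodazole release, G1/S directly after double thymidine block.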

Row | Sequence | thermal stability score (HeLa Kyoto [1]; [5]) | thermal stability score (HeLa Kyoto [1]; cell cycle stage: mitosis) | solubility change mitosis (log2) (HeLa Kyoto [2]) | melting temperature (HeLa Kyoto [3]; cell cycle stage: G1/S) | melting temperature (HeLa Kyoto [3]; cell cycle stage: mitosis) | solubility in G1/S (log2) (HeLa Kyoto [4])
1 | MAADKGPAAGPRSRAAMAQWRKKKGLRKRRGAASQARGSDSEDGEFEIQAEDDARARKLGPGRPLPTFPTSECTSDVEPDTREMVRAQNKKKKKSGGFQSMGLSYPVFKGIMKKGYKVPTPIQRKTIPVILDGKDVVAMARTGSGKTACFLLPMFERLKTHSAQTGARALILSPTRELALQTLKFTKELGKFTGLKTALILGGDRMEDQFAALHENPDIIIATPGRLVHVAVEMSLKLQSVEYVVFDEADRLFEMGFAEQLQEIIARLPGGHQTVLFSATLPKLLVEFARAGLTEPVLIRLDVDTKLNEQLKTSFFLVREDTKAAVLLHLLHNVVRPQDQTVVFVATKHHAEYLTELLTTQRVSCAHIYSALDPTARKINLAKFTLGKCSTLIVTDLAARGLDIPLLDNVINYSFPAKGKLFLHRVGRVARAGRSGTAYSLVAPDEIPYLLDLHLFLGRSLTLARPLKEPSGVAGVDGMLGRVPQSVVDEEDSGLQSTLEASLELRGLARVADNAQQQYVRSRPAPSPESIKRAKEMDLVGLGLHPLFSSRFEEEELQRLRLVDSIKNYRSRATIFEINASSRDLCSQVMRAKRQKDRKAIARFQQGQQGRQEQQEGPVGPAPSRPALQEKQPEKEEEEEAGESVEDIFSEVVGRKRQRSGPNRGAKRRREEARQRDQEFYIPYRPKDFDSERGLSISGEGGAFEQQAAGAVLDLMGDEAQNLTRGRQQLKWDRKKKRFVGQSGQEDKKKIKTESGRYISSSYKRDLYQKWKQKQKIDDRDSDEEGASDRRGPERRGGKRDRGQGASRPHAPGTPAGRVRPELKTKQQILKQRRRAQKLHFLQRGGLKQLSARNRRRVQELQQGAFGRGARSKKGKMRKRM [DDX54] | 0.641 | 3.16 | 1.12 | 50.7 °C | 51.6 °C | -1.96
2 | MAIHKALVMCLGLPLFLFPGAWAQGHVPPGCSQGLNPLYYNLCDRSGAWGIVLEAVAGAGIVTTFVLTIILVASLPFVQDTKKRSLLGTQVFFLLGTLGLFCLVFACVVKPDFSTCASRRFLFGVLFAICFSCLAAHVFALNFLARKNHGPRGWVIFTVALLLTLVEVIINTEWLIITLVRGSGEGGPQGNSSAGWAVASPCAIANMDFVMALIYVMLLLLGAFLGAWPALCGRYKRWRKHGVFVLLTTATSVAIWVVWIVMYTYGNKQHNSPTWDDPTLAIALAANAWAFVLFYVIPEVSQVTKSSPEQSYQGDMYPTRGVGYETILKEQKGQSMFVENKAFSMDEPVAAKRPVSPYSGYNGQLLTSVYQPTEMALMHKVPSEGAYDIILPRATANSQVMGSANSTLRAEDMYSAQSHQAATPPKDGKNSQVFRNPYVWD [GPRC5C] | -4.36 | -2.81 | -0.0918 | 54.6 °C | 57.8 °C | -0.132
3 | MATTVPDGCRNGLKSKYYRLCDKAEAWGIVLETVATAGVVTSVAFMLTLPILVCKVQDSNRRKMLPTQFLFLLGVLGIFGLTFAFIIGLDGSTGPTRFFLFGILFSICFSCLLAHAVSLTKLVRGRKPLSLLVILGLAVGFSLVQDVIAIEYIVLTMNRTNVNVFSELSAPRRNEDFVLLLTYVLFLMALTFLMSSFTFCGSFTGWKRHGAHIYLTMLLSIAIWVAWITLLMLPDFDRRWDDTILSSALAANGWVFLLAYVSPEFWLLTKQRNPMDYPVEDAFCKPQLVKKSYGVENRAYSQEEITQGFEETGDTLYAPYSTHFQLQNQPPQKEFSIPRAHAWPSPYKDYEVKKEGS [GPRC5A] | -2.25 | -1.15 | -0.365 | 63.4 °C | 60.3 °C | -0.337
4 | MAWRHLKKRAQDAVIILGGGGLLFASYLMATGDERFYAEHLMPTLQGLLDPESAHRLAVRFTSLGLLPRARFQDSDMLEVRVLGHKFRNPVGIAAGFDKHGEAVDGLYKMGFGFVEIGSVTPKPQEGNPRPRVFRLPEDQAVINRYGFNSHGLSVVEHRLRARQQKQAKLTEDGLPLGVNLGKNKTSVDAAEDYAEGVRVLGPLADYLVVNVSSPNTAGLRSLQGKAELRRLLTKVLQERDGLRRVHRPAVLVKIAPDLTSQDKEDIASVVKELGIDGLIVTNTTVSRPAGLQGALRSETGGLSGKPLRDLSTQTIREMYALTQGRVPIIGVGGVSSGQDALEKIRAGASLVQLYTALTFWGPPVVGKVKRELEALLKEQGFGGVTDAIGADHRR [DHODH] | -0.868 | -1.34 | -0.147 | 56.2 °C | 55.7 °C | 0.149
5 | MGTTAPGPIHLLELCDQKLMEFLCNMDNKDLVWLEEIQEEAERMFTREFSKEPELMPKTPSQKNRRKKRRISYVQDENRDPIRRRLSRRKSRSSQLSSRRLRSKDSVEKLATVVGENGSVLRRVTRAAAAAAAATMALAAPSSPTPESPTMLTKKPEDNHTQCQLVPVVEIGISERQNAEQHVTQLMSTEPLPRTLSPTPASATAPTSQGIPTSDEESTPKKSKARILESITVSSLMATPQDPKGQGVGTGRSASKLRIAQVSPGPRDSPAFPDSPWRERVLAPILPDNFSTPTGSRTDSQSVRHSPIAPSSPSPQVLAQKYSLVAKQESVVRRASRRLAKKTAEEPAASGRIICHSYLERLLNVEVPQKVGSEQKEPPEEAEPVAAAEPEVPENNGNNSWPHNDTEIANSTPNPKPAASSPETPSAGQQEAKTDQADGPREPPQSARRKRSYKQAVSELDEEQHLEDEELQPPRSKTPSSPCPASKVVRPLRTFLHTVQRNQMLMTPTSAPRSVMKSFIKRNTPLRMDPKCSFVEKERQRLENLRRKEEAEQLRRQKVEEDKRRRLEEVKLKREERLRKVLQARERVEQMKEEKKKQIEQKFAQIDEKTEKAKEERLAEEKAKKKAAAKKMEEVEARRKQEEEARRLRWLQQEEEERRHQELLQKKKEEEQERLRKAAEAKRLAEQREQERREQERREQERREQERREQERREQERQLAEQERRREQERLQAERELQEREKALRLQKEQLQRELEEKKKKEEQQRLAERQLQEEQEKKAKEAAGASKALNVTVDVQSPACTSYQMTPQGHRAPPKINPDNYGMDLNSDDSTDDEAHPRKPIPTWARGTPLSQAIIHQYYHPPNLLELFGTILPLDLEDIFKKSKPRYHKRTSSAVWNSPPLQGARVPSSLAYSLKKH [INCENP] | – | – | 0.163 | – | – | -1.47
6 | MPQLYIYIRLLGAYLFIISRVQGQNLDSMLHGTGMKSDSDQKKSENGVTLAPEDTLPFLKCYCSGHCPDDAINNTCITNGHCFAIIEEDDQGETTLASGCMKYEGSDFQCKDSPKAQLRRTIECCRTNLCNQYLQPTLPPVVIGPFFDGSIRWLVLLISMAVCIIAMIIFSSCFCYKHYCKSISSRRRYNRDLEQDEAFIPVGESLKDLIDQSQSSGSGSGLPLLVQRTIAKQIQMVRQVGKGRYGEVWMGKWRGEKVAVKVFFTTEEASWFRETEIYQTVLMRHENILGFIAADIKGTGSWTQLYLITDYHENGSLYDFLKCATLDTRALLKLAYSAACGLCHLHTEIYGTQGKPAIAHRDLKSKNILIKKNGSCCIADLGLAVKFNSDTNEVDVPLNTRVGTKRYMAPEVLDESLNKNHFQPYIMADIYSFGLIIWEMARRCITGGIVEEYQLPYYNMVPSDPSYEDMREVVCVKRLRPIVSNRWNSDECLRAVLKLMSECWAHNPASRLTALRIKKTLAKMVESQDVKI [BMPR1A] | – | – | 0.0431 | – | – | -0.0875
7 | MQEIIASVDHIKFDLEIAVEQQLGAQPLPFPGMDKSGAAVCEFFLKAACGKGGMCPFRHISGEKTVVCKHWLRGLCKKGDQCEFLHEYDMTKMPECYFYSKFGECSNKECPFLHIDPESKIKDCPWYDRGFCKHGPLCRHRHTRRVICVNYLVGFCPEGPSCKFMHPRFELPMGTTEQPPLPQQTQPPAKQSNNPPLQRSSSLIQLTSQNSSPNQQRTPQVIGVMQSQNSSAGNRGPRPLEQVTCYKCGEKGHYANRCTKGHLAFLSGQ [CPSF4] | 0.742 | 1.09 | 0.32 | 48.4 °C | 50 °C | -0.344
8 | MVFSVRQCGHVGRTEEVLLTFKIFLVIICLHVVLVTSLEEDTDNSSLSPPPAKLSVVSFAPSSNGTPEVETTSLNDVTLSLLPSNETEKTKITIVKTFNASGVKPQRNICNLSSICNDSAFFRGEIMFQYDKESTVPQNQHITNGTLTGVLSLSELKRSELNKTLQTLSETYFIMCATAEAQSTLNCTFTIKLNNTMNACAVIAALERVKIRPMEHCCCSVRIPCPSSPEELEKLQCDLQDPIVCLADHPRGPPFSSSQSIPVVPRATVLSQVPKATSFAEPPDYSPVTHNVPSPIGEIQPLSPQPSAPIASSPAIDMPPQSETISSPMPQTHVSGTPPPVKASFSSPTVSAPANVNTTSAPPVQTDIVNTSSISDLENQVLQMEKALSLGSLEPNLAGEMINQVSRLLHSPPDMLAPLAQRLLKVVDDIGLQLNFSNTTISLTSPSLALAVIRVNASSFNTTTFVAQDPANLQVSLETQAPENSIGTITLPSSLMNNLPAHDMELASRVQFNFFETPALFQDPSLENLSLISYVISSSVANLTVRNLTRNVTVTLKHINPSQDELTVRCVFWDLGRNGGRGGWSDNGCSVKDRRLNETICTCSHLTSFGVLLDLSRTSVLPAQMMALTFITYIGCGLSSIFLSVTLVTYIAFEKIRRDYPSKILIQLCAALLLLNLVFLLDSWIALYKMQGLCISVAVFLHYFLLVSFTWMGLEAFHMYLALVKVFNTYIRKYILKFCIVGWGVPAVVVTIILTISPDNYGLGSYGKFPNGSPDDFCWINNNAVFYITVVGYFCVIFLLNVSMFIVVLVQLCRIKKKKQLGAQRKTSIQDLRSIAGLTFLLGITWGFAFFAWGPVNVTFMYLFAIFNTLQGFFIFIFYCVAKENVRKQWRRYLCCGKLRLAENSDWSKTATNGLKKQTVNQGVSSSSNSLQSSSNSTNSTTLLVNNDCSVHASGNGNASTERNGVSFSVQNGDVCLHDFTGKQHMFNEKEDSCNGKGRMALRRTSKRGSLHFIEQM [ADGRG2] | -0.345 | -0.905 | – | 56.5 °C | 54.2 °C | –
